Experimental findings from publication PMC8249470, “Binding of guide piRNA triggers methylation of the unstructured N-terminal region of Aub leading to assembly of the piRNA amplification complex” (Nature Communications, 2021) are described below.

These are yes or no findings as the source states them, for the method shown. In cells and extracts the contact can be indirect. Some entries that bind do so weakly or less than the wild type. Tags and fused reporters may be left off the sequences shown.

Experiment [1] concerns the target T1, FLAG-tagged Aub (Drosophila melanogaster), O76922.
T1 chain: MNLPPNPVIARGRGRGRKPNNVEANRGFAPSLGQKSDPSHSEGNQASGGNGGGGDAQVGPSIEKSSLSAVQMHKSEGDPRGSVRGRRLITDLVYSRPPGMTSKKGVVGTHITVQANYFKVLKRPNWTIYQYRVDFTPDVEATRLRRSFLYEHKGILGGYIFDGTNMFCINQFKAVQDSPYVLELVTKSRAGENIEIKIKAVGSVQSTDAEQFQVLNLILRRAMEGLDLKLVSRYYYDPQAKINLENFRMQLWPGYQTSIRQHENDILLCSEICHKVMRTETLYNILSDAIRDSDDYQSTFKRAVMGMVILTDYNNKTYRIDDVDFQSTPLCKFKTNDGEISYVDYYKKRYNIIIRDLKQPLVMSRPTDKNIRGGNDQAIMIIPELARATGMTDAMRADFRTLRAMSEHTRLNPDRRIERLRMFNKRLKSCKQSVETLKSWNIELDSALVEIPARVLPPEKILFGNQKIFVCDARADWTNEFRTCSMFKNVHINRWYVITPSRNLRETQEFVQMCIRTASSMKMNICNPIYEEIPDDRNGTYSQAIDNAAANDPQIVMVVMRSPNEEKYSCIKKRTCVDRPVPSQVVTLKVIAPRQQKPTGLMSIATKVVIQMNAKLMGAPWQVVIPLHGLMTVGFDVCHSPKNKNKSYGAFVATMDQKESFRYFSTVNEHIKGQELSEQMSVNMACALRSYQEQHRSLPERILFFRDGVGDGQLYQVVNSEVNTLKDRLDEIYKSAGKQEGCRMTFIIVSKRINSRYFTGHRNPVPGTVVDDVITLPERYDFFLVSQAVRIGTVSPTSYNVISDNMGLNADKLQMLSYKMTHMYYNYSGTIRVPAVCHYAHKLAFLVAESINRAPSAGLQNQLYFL
The experiment can be described thus: co-IP; two-step sequential immunoprecipitation from S2 cells co-expressing FLAG-Aub, HA-Ago3 and GFP-deltaN-Krimper: FLAG IP, elution with 3X FLAG peptide, then GFP IP; Western blot; lysis buffer 20 mM Tris pH 7.4, 200 mM KCl, 0.1% Tween-20, 0.1% Igepal, 100 μg/mL RNase A. The conditions noted are these: remark: other sources report otherwise.

The target in experiment [2] is T2, FLAG-tagged Aub (Drosophila melanogaster) (UniProt O76922).
T2 sequence: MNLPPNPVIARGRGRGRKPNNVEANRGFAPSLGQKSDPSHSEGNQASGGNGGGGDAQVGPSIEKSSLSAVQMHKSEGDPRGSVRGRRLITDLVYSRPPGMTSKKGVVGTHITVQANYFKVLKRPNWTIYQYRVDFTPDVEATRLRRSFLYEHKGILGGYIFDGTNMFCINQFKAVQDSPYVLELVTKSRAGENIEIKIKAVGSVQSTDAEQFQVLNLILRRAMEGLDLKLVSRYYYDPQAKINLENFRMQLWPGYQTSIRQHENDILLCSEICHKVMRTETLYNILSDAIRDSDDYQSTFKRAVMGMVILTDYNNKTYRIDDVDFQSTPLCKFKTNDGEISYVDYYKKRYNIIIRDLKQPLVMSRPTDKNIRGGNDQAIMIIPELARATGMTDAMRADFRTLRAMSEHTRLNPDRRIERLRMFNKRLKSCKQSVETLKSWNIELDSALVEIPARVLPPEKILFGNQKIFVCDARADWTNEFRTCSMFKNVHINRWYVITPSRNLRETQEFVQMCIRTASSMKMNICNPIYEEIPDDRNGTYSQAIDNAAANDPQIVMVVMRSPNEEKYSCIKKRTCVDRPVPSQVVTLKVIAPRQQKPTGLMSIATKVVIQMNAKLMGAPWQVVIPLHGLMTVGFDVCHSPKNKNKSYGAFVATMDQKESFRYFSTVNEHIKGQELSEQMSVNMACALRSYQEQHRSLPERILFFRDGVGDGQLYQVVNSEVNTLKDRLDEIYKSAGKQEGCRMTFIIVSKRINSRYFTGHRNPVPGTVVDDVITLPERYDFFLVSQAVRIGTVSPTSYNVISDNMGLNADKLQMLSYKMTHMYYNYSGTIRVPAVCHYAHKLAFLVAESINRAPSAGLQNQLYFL
The description is as above.

Experiment [3] addresses T3, Aub expressed in S2 cells (tag not named) (Drosophila melanogaster) (UniProt O76922).
T3 sequence: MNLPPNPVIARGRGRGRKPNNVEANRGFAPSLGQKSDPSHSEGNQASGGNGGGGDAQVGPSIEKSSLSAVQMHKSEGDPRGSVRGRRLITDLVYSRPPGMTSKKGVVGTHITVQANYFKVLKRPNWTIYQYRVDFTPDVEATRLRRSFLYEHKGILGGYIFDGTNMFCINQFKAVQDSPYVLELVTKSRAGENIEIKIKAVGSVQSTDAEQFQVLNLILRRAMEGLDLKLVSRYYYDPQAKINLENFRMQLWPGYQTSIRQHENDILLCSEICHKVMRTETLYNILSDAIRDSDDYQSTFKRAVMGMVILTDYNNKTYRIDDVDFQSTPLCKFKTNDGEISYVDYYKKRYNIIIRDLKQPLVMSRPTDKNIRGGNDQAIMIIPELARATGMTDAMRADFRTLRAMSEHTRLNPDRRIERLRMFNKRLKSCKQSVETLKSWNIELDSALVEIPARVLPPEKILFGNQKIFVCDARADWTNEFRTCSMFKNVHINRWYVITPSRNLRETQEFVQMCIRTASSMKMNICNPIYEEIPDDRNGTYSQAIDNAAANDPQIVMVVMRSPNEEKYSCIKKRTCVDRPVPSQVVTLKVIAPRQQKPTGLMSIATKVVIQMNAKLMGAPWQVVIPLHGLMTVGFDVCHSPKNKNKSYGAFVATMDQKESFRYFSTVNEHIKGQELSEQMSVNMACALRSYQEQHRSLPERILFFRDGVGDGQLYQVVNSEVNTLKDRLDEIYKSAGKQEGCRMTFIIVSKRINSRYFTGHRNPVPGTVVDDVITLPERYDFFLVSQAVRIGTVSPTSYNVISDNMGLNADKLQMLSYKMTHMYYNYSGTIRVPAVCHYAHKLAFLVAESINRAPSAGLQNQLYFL
The experiment can be described thus: co-IP; tagged proteins co-expressed in S2 cells; lysis buffer 20 mM Tris pH 7.4, 200 mM KCl, 0.1% Tween-20, 0.1% Igepal, 100 μg/mL RNase A; anti-FLAG, anti-HA or anti-GFP beads, 4 °C, 4 h; Western blot; in Fig. 6e lysates were incubated with or without ssRNA oligo before the co-IP.

Experiment [4] deals with T4, HA-Aub (wild type) (Drosophila melanogaster) (UniProt O76922).
T4 sequence: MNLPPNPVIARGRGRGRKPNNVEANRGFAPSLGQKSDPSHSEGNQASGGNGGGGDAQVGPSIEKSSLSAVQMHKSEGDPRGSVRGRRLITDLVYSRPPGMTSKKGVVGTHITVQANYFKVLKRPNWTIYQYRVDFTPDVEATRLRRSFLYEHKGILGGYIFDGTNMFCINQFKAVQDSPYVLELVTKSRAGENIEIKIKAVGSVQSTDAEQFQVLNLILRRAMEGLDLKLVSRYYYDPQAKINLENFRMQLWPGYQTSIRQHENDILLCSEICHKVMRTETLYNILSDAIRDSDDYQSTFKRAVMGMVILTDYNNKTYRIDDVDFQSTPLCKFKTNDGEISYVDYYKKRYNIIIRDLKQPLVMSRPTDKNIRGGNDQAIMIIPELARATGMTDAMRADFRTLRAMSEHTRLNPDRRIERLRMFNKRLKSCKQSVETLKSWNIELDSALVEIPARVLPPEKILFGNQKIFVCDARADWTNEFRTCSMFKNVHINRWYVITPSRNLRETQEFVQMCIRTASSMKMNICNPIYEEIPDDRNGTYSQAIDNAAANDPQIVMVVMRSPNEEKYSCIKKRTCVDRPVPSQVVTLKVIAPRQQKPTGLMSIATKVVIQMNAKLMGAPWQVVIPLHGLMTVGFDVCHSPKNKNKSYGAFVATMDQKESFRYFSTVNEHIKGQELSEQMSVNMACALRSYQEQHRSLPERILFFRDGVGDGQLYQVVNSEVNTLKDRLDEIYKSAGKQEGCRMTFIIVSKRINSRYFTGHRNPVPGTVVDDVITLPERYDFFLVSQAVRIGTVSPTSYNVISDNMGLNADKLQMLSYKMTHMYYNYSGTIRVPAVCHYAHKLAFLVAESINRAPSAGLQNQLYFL
Described as above.

B1: HA-tagged Ago3, Q7PLK0 1-867 (protein)
chain: MSGRGNLLSLFNKNAGNMGKSISSKDHEIDSGLDFNNSESSGERLLSSHNIETDLITTLQHVNISVGRGRARLIDTLKTDDHTSNQFITSESKENITKKTKGPESEAIASENGLFFPDLIYGSKGSSVNIYCNYLKLTTDESKGVFNYEVRFFPPIDSVHLRIKYLNDHKDKLGGTKTFDGNTLYLPILLPNKMTVFISKAEDVELQIRILYKKKEEMRNCTQLYNILFDRVMKVLNYVKFDRKQFDPSRPKIIPLAKLEVWPGYVTAVDEYKGGLMLCCDVSHRILCQKTVLEMLVDLYQQNVEHYQESARKMLVGNIVLTRYNNRTYKINDICFDQNPTCQFEIKTGCTSYVEYYKQYHNINIKDVNQPLIYSIKKSRGIPAERENLQFCLIPELCYLTGLRDEVRSDNKLMREIATFTRVSPNQRQMALNKFYENVSNTPAAQEILNSWGLSLTNNSNKISGRQMDIEQIYFSKISVSAGRSAEFSKHAVTNEMLKVVHLSKWIIIHLRNYRQAATSLLDNMKQACESLGMNISNPTMISLDHDRIDAYIQALRRNITMNTQMVVCICHNRRDDRYAAIKKICCSEIPIPSQVINAKTLQNDLKIRSVVQKIVLQMNCKLGGSLWTVKIPFKNVMICGIDSYHDPSNRGNSVAAFVASINSSYSQWYSKAVVQTKREEIVNGLSASFEIALKMYRKRNGKLPTNIIIYRDGIGDGQLYTCLNYEIPQFEMVCGNRIKISYIVVQKRINTRIFSGSGIHLENPLPGTVVDQHITKSNMYDFFLVSQLVRQGTVTPTHYVVLRDDCNYGPDIIQKLSYKLCFLYYNWAGTVRIPACCMYAHKLAYLIGQSIQRDVAEALSEKLFYL
With B1, the binding result in experiment [1] is recorded as “binds”.

B2: GFP-tagged truncated Krimper lacking its N terminal dimerization domain (domain or fragment, UniProt A1ZAC4 301-746)
chain: RDIYNQILKDMAAFPENTIVTAVLASVDVTDNCAYVAKWDESSDRIKKVLQRQLPLQELDQLPDYGDIFAVLDSINNIITRITINSSSAGGGYDAYLIDFGEHIHFDGNETIFKLPDDIKRLPAQAIRCDLINCDIANMHCFVNTYIKIRVHENNNSTLVAEPVIDRLSRPTKTNTTKYPAGITEDDMAMLNEIDESTSDPLKAVLGFRPKDEQRICRHYDPKLNGCFKGNNCRFAHEPFAPNGATKDVELARALPETIFDTTVHFEIGSIVGILITFINGPTEVYGQFLDGSPPLVWDKKDVPENKRTFKSKPRLLDIVLALYSDGCFYRAQIIDEFPSEYMIFYVDYGNTEFVPLSCLAPCENVDSFKPHRVFSFHIEGIVRSKNLTHQKTIECIEYLKSKLLNTEMNVHLVQRLPDGFLIRFLDDWKYIPEQLLQRNYAQVSQ
Take B2: the binding entry in experiment [2] is on record as “binds”.

B3: GFP-Csul (enzyme, UniProt Q9U6Y9 1-610)
chain: MNYYVCLHQEGVNSIPKLIEKAFANNYNVVSTSINANMLPFEPHESDPTYPATILSGSDWNSKVIFTMSDVNVDSPNDKLREHAKEVFMRDVAWAEHLQNVGNLMVRLRGPENENLASIVLAKTKDDFPSGNWFIQVPITNPELATFEHRKDATAEEVAEAESNDPWNWWNNLRMVTKHSTKVKVVIELNDADRPSKETVRRWLGEPIEAIIIPSSLFVRNRSNYCVLKKEWQLIVGHFISVRANIIISTNPNDKALCQYADYVNKLINDNCDKHMLNSYENMLEIPLQPLCDNLDTYTYEVFETDPVKYKLYQDAVQAALLDRVSAAEAKTKLTVVMLLGGGRGPLARAVFNAAELTKRKVRLYIIEKNPNAIRTLSNMVKTLWADKDVHIFSKDMRDFSPPELADIMVSELLGSFGDNELSPECLDGALKLLKPDGISIPYKSTSYINPLMSAVLHQNVCQLLPTYPAFDYGYVSLLKNIYHIDEPQALFEFVHPNRAENIDNTRCKTVSFKVNKDCVLHGIGGYFDTHLYKDICLSINPLTHTPGMFSWFPMFFATRPRTLREGQTISIQFWRCVDATKVWYEWQVVNSPDDWEHHNTRGTGYNMRL
On to B3, for which the binding result in experiment [3] was “binds”.

B4: FLAG-Csul (enzyme, UniProt Q9U6Y9 1-610)
chain: MNYYVCLHQEGVNSIPKLIEKAFANNYNVVSTSINANMLPFEPHESDPTYPATILSGSDWNSKVIFTMSDVNVDSPNDKLREHAKEVFMRDVAWAEHLQNVGNLMVRLRGPENENLASIVLAKTKDDFPSGNWFIQVPITNPELATFEHRKDATAEEVAEAESNDPWNWWNNLRMVTKHSTKVKVVIELNDADRPSKETVRRWLGEPIEAIIIPSSLFVRNRSNYCVLKKEWQLIVGHFISVRANIIISTNPNDKALCQYADYVNKLINDNCDKHMLNSYENMLEIPLQPLCDNLDTYTYEVFETDPVKYKLYQDAVQAALLDRVSAAEAKTKLTVVMLLGGGRGPLARAVFNAAELTKRKVRLYIIEKNPNAIRTLSNMVKTLWADKDVHIFSKDMRDFSPPELADIMVSELLGSFGDNELSPECLDGALKLLKPDGISIPYKSTSYINPLMSAVLHQNVCQLLPTYPAFDYGYVSLLKNIYHIDEPQALFEFVHPNRAENIDNTRCKTVSFKVNKDCVLHGIGGYFDTHLYKDICLSINPLTHTPGMFSWFPMFFATRPRTLREGQTISIQFWRCVDATKVWYEWQVVNSPDDWEHHNTRGTGYNMRL
Take B4: the binding result in experiment [4] is “binds”.
